Results from a collection of fitness landscapes (doi:10.1038/s41467-024-54723-y).
Whole data set: some 18,000 sequences, median “TetR repression strength (sort-seq, GFP reporter)” near 0.23, cut for the highest 2% near 0.68. Some of the results follow.

Molecular target: TetR (class B, Tn10) (UniProt P04483)
Experiment: TetR repression strength (sort-seq, GFP reporter) (relative to tetO2 = 1); higher = stronger repression
Conditions: E. coli
Method in brief: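 Three independent transformations of E. coli SIG10-MAX were made with a low-copy plasmid library randomizing eight operator positions between a constitutive promoter and sfGFP, with constitutive TetR. Following 5 h at 37 °C in LB plus 50 µg/mL chloramphenicol, 10^6 cells went through FACS into 13 fluorescence bins, and each bin was sequenced by Illumina. Repression strength was defined as the top bin index plus one minus the read-weighted mean bin, divided by the unaltered operator's value. Averages included only members reaching ≥30 reads in all replicates with a CV ≤0.5.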

Sequence of UniProt P04483 (P04483 whole entry): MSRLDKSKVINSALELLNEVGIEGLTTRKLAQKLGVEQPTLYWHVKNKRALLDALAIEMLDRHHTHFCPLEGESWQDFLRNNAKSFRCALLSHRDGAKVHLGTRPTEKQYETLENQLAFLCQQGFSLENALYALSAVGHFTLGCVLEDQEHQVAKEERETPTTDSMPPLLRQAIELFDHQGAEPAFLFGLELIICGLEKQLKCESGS

Sequence | TetR repression strength
TCCCCGCTAGTAGGTGAGA | 0.0856
TCCCGGTCAGTGCCAGAGA | 0.271
TCCCACGTAGTCCCTGAGA | 0.422
TCCCTTATAGTGTATGAGA | 0.0968
TCCCTAGGAGTGAAGGAGA | 0.129
TCCCACCCAGTGGCTGAGA | 0.127
TCCCAGAGAGTGGAAGAGA | 0.148
TCCCATGTAGTCCTCGAGA | 0.299
TCCCTCCTAGTGGGGGAGA | 0.13
TCCCGTAGAGTTTGAGAGA | 0.0224
TCCCCAATAGTTAGGGAGA | 0.699
TCCCTGGTAGTGACAGAGA | 1.03
TCCCGTTTAGTGGAGGAGA | 0.132
TCCCGGGCAGTAGGCGAGA | 1.05
TCCCGTCCAGTCCGTGAGA | 0.341
TCCCGGCCAGTATGCGAGA | 0.209
TCCCTTCAAGTCGCCGAGA | 0.402
TCCCTAGAAGTCCTCGAGA | 0.314
TCCCCTGAAGTCTTCGAGA | 0
TCCCGCACAGTAATAGAGA | 0.298
TCCCAATAAGTCTGGGAGA | 0.173
TCCCAACGAGTTCTTGAGA | 0.184
TCCCACTAAGTGGAGGAGA | 0.267
TCCCGCTTAGTCTCAGAGA | 0.229
TCCCAGTCAGTACCCGAGA | 0.354
TCCCGGTAAGTGCTTGAGA | 0.248

Sequence | TetR repression strength
TCCCCGTTAGTGCGGGAGA | 0.0422
TCCCGGACAGTGGGAGAGA | 0.281
TCCCCCAGAGTGTGAGAGA | 0.0598
TCCCAGTGAGTTTTGGAGA | 0.132
TCCCATCCAGTGTGGGAGA | 0.217
TCCCGGTGAGTGGGGGAGA | 0.203
TCCCGAGTAGTGCGGGAGA | 0.182
TCCCACGGAGTTGAGGAGA | 0.262
TCCCTGCAAGTGGCGGAGA | 0.293
TCCCATCTAGTGAAGGAGA | 0.627
TCCCAGCGAGTAGCTGAGA | 0.139
TCCCAACAAGTACCTGAGA | 0.31
TCCCTCCGAGTGTTAGAGA | 0.415
TCCCGATCAGTAGTAGAGA | 0.459
TCCCGATTAGTGCGTGAGA | 0.197
TCCCACTCAGTTATCGAGA | 0.617
TCCCCGGGAGTGCCCGAGA | 0.0528
TCCCACCCAGTGGGCGAGA | 0.404
TCCCATTGAGTGCATGAGA | 0.244
TCCCATTAAGTGTTAGAGA | 0.277
TCCCCAGGAGTGGGGGAGA | 0.142
TCCCGGAGAGTTGTAGAGA | 0.158
TCCCTATTAGTCACTGAGA | 0.322
TCCCGTGGAGTCAAGGAGA | 0.486
TCCCCAGTAGTTTGCGAGA | 0.202
TCCCCTATAGTGCTAGAGA | 0.285

Sequence | TetR repression strength
TCCCAATCAGTGTAAGAGA | 0.74
TCCCTCAGAGTACGCGAGA | 0.338
TCCCTATGAGTCTCGGAGA | 0.204
TCCCATTCAGTTTATGAGA | 0.248
TCCCTCCGAGTACGGGAGA | 0.613
TCCCTGGAAGTGCCAGAGA | 0.368
TCCCTTAGAGTCATGGAGA | 0.0217
TCCCAACAAGTACTAGAGA | 0.143
TCCCAAGAAGTGTCGGAGA | 0.318
TCCCATGCAGTGGCTGAGA | 0.152
TCCCGGTCAGTTGGGGAGA | 0.275
TCCCGAAGAGTGGGAGAGA | 0.0852
TCCCCTGGAGTTCGGGAGA | 0.015
TCCCTGTAAGTAGGGGAGA | 0.115
TCCCCCTCAGTCGCGGAGA | 0.259
TCCCATTGAGTTAGGGAGA | 0.273
TCCCCTGGAGTCGTGGAGA | 0.258
TCCCCACCAGTGCCAGAGA | 0.642
TCCCCTCGAGTGGGCGAGA | 0.179
TCCCTGACAGTAGTTGAGA | 0.122
TCCCGCATAGTTGAAGAGA | 0.472
TCCCCTTGAGTTGATGAGA | 0.327
TCCCCCTTAGTTGAGGAGA | 0.114
TCCCTCGGAGTTGTAGAGA | 0.0421
TCCCCGTGAGTGGGCGAGA | 0.0545
TCCCTGTAAGTCGTGGAGA | 0.309

Sequence | TetR repression strength
TCCCGTACAGTATGCGAGA | 0.104
TCCCCAGGAGTGGCTGAGA | 0.0764
TCCCAGTAAGTGGGAGAGA | 0.137
TCCCTATTAGTTGCAGAGA | 0.498
TCCCCAGAAGTTGGTGAGA | 0.0426
TCCCGGTGAGTTTAGGAGA | 0.231
TCCCACTAAGTTTGAGAGA | 0.374
TCCCGGCGAGTGAGAGAGA | 0.539
TCCCAGATAGTGAAGGAGA | 0.344
TCCCGGGAAGTCCAAGAGA | 0.169
TCCCACAGAGTCAATGAGA | 0.487
TCCCACAGAGTCGTGGAGA | 0.295
TCCCCCAGAGTGACGGAGA | 0.265
TCCCAAGTAGTCGCGGAGA | 0.0901
TCCCCTACAGTTCAAGAGA | 0.457
TCCCCTACAGTCATTGAGA | 0.403
TCCCTTTGAGTGAATGAGA | 0.472
TCCCTAAAAGTGGTGGAGA | 0.155
TCCCGCTGAGTGGAAGAGA | 0.0346
TCCCCTTTAGTGGCCGAGA | 0.278
TCCCAGAGAGTGCTAGAGA | 0.0479
TCCCCCGTAGTTATGGAGA | 0.161
TCCCAATCAGTCATGGAGA | 0.158
TCCCTTCGAGTTGTAGAGA | 0.382
